According to the supplement of paper PMC7826260:
The other results are listed elsewhere or left out. The data describe in vitro nicking of single-stranded DNA by Rep domains (3 µM enzyme, 1 h, 37 °C); shown is the middle of each 90-letter strand. Uncut reads are compared with the no-enzyme pool on a log2 scale; more negative means more cut, near 0 not cut, and no call is made. The scaling is to total reads; values above 0 arise when much of the pool is cut.

tested on: T1, Rep nickase domain of tomato golden mosaic virus; experiment: uncleaved DNA left, log2 of reads against the no-enzyme library (log2 ratio); higher = less cleavage (more negative = more Rep cleavage of the k-mer); sequences stand for … in CTCGTCCG…ACCGGAGA
T1 sequence (residues 1-124, tag not shown): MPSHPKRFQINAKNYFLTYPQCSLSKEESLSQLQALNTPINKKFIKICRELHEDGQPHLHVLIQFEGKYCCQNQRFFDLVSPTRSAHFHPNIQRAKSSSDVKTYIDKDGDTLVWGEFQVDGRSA
Protocol: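 A pool of 90-nt single-stranded DNAs with seven random bases just before the constant AC of the nick site (name = the seven bases) was cut by 3 µM recombinant His6-SUMO-tagged Rep nickase domain (300 nM DNA, 50 mM HEPES pH 8.0, 50 mM NaCl, 1 mM MnCl2, 1 h, 37 °C, three replicates). Uncut DNA was amplified and sequenced.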

Sequence	uncleaved DNA left (log2)
ACGTTCA	0.0743
GACCAAC	-0.00597
GACTTTC	-0.187
GGACCTT	-0.0293
GTCAATT	0.0652
GGTCGAG	0.118
TACACAA	-0.00713
TATGAGC	-0.0131
CGGTGCG	-0.262
CGCTCAC	-0.189
GTAATCG	0.157
GTCCCTG	0.0156
CGAGTCC	0.0208
GGAGGAA	0.209
GGGTAGG	0.139
CTCAACG	0.0397
AGACTTT	0.00179
CCGCGGC	-0.0497
TTGCCCT	-0.248
GCAACCA	0.051

Sequence	uncleaved DNA left (log2)
ACATGCG	-0.1
GGTTCAG	0.0784
TTAGCAA	0.0526
AAGAACT	-0.052
ACATTAA	-0.0466
CGGTTCG	-0.168
CGATACG	-0.199
TTCCTGT	-0.183
TTTATCA	0.00222
CGATATT	-0.454
GTATTTT	0.0325
TAAGGCA	0.0364
CCCTTGT	0.0425
ACAGAGC	0.0316
CAGGAGT	-0.0684
ATAATCG	-0.0207
CTCAGTT	-0.33
CAAAGTG	0.0465
CGATAGC	-0.0993
CTACAGT	-0.0686
